{"source": "the supplement of paper PMC11417369", "note": "± gives the standard deviation of the averaged measurements. The list shows a part of the results."}
{"test_system": "PfAP2-G AP2 domain (GST-tagged)", "assay": "gcPBM binding intensity (ln(normalized median fluorescence intensity)); higher = stronger DNA binding", "summary_of_the_method": "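Each value is the highest Masliner-normalised natural-log median intensity across replicate spots of either orientation of a probe. The probes were primer-extended double-stranded 36-bp intergenic genomic sequences on an Agilent 4 × 180k array, alongside negative controls, exposed for 1 h to GST-tagged P. falciparum DNA-binding domains expressed in E. coli. Bound protein was picked up with Alexa488 anti-GST antibody and scanned at 488 nm.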"}
{"sequence": "TTTTTTTTTTAATTCGCACACTGTCTTCATGCAATT [CACACA_site4882]", "gcPBM binding intensity (ln)": "10.04 ± 0.049"}
{"sequence": "TTAAAAAATTTTTAAGCACACACATAGATAATATAT [CACACA_site8440]", "gcPBM binding intensity (ln)": "10.4 ± 0.23"}
{"sequence": "GCACATCTATATGAAACACACATGGAAACATCTCTT [CACACA_site7793]", "gcPBM binding intensity (ln)": "10.01 ± 0.057"}
{"sequence": "ACATCTCTTATATATTCACACACATATATATAATTA [CACACA_site8424]", "gcPBM binding intensity (ln)": "10.07 ± 0.028"}
{"sequence": "AGTATATATTATATATATATATATATATTATATATG [TGCATGCA_negctrl_site99]", "gcPBM binding intensity (ln)": "9.6 ± 0.11"}
{"sequence": "ATAGAATATTATATTACACACAGAATAATAAAAAAT [CACACA_site86]", "gcPBM binding intensity (ln)": "9.885 ± 0.007"}
{"sequence": "AGCATTAAAAATGGAATGGAATTAAGCTATATATTA [CACACA_negctrl_site1571]", "gcPBM binding intensity (ln)": "9.58 ± 0.26"}
{"sequence": "GAAACTTCAAGAAATGCACACAATAAAATAAATAAA [CACACA_site1549]", "gcPBM binding intensity (ln)": "10.1 ± 0.19"}
{"sequence": "CATTTCGAAAAAAAATGTACTTATTATATTTATATA [XGTACX_site6752]", "gcPBM binding intensity (ln)": "11.2 ± 0.89"}
{"sequence": "TGTATATATTATAAAAGTACATAATATTCTTAGATA [XGTACX_site5623]", "gcPBM binding intensity (ln)": "11.3 ± 0.83"}
{"sequence": "TTATCTTACATAAATTATAACAATAATATGTGTATA [XGTACX_negctrl_site379]", "gcPBM binding intensity (ln)": "9.96 ± 0.042"}
{"sequence": "AACCACAGACATATAACACACATATACAATATATAT [CACACA_site5142]", "gcPBM binding intensity (ln)": "10.2 ± 0.28"}
{"sequence": "CTTTTTTTGACCTTAGTGCAAATAACTATATATTAT", "gcPBM binding intensity (ln)": "10.4 ± 0.39"}
{"sequence": "TAAAAAAAAAAATGAACATGCAACAATTGTGATGAA [TGCATGCA_site332]", "gcPBM binding intensity (ln)": "9.74 ± 0.32"}
{"sequence": "ACTGTAACAATCATGGGTACAAATAAAATAATATCT [XGTACX_site99]", "gcPBM binding intensity (ln)": "11.2 ± 0.73"}
{"sequence": "ATGAAAATTATAAAGTGTACATATAGAAACATTTAC [XGTACX_site8047]", "gcPBM binding intensity (ln)": "11.4 ± 0.99"}
{"sequence": "TTTCGATTAAAAATTGTACAATATAAGGAGCACACA [GTGCAC_negctrl_site476]", "gcPBM binding intensity (ln)": "11.2 ± 0.64"}
{"sequence": "AAAAGAATATATAATTGTACTTAAAATATAATTAAG [XGTACX_site4484]", "gcPBM binding intensity (ln)": "11.1 ± 0.74"}
{"sequence": "TTTTGTCTTATATGTTGTACAACGTAAACAAAAAAA [XGTACX_site4412]", "gcPBM binding intensity (ln)": "11.5 ± 0.82"}
{"sequence": "ATTTAAGTAGTACATACACACACATATACAAAAAGA [CACACA_site9317]", "gcPBM binding intensity (ln)": "11.7 ± 1.3"}
{"sequence": "AAAAAAATTAAACATGAAGAATAAGGAACAAAAAAA [CACACA_negctrl_site1607]", "gcPBM binding intensity (ln)": "10.1 ± 0.014"}
{"sequence": "TTTAATCATATGTTATATAATAAGCCCCCCCCCCAA [CACACA_negctrl_site486]", "gcPBM binding intensity (ln)": "11.6 ± 0.86"}
{"sequence": "ATGGGACATATATATACACACATATATATATATATA [CACACA_site1202]", "gcPBM binding intensity (ln)": "10.2 ± 0.3"}
{"sequence": "AATATAGTTCAATATACACACCCCTTTATTCATTTT [CACACA_site3625]", "gcPBM binding intensity (ln)": "9.94 ± 0.12"}
{"sequence": "GTAACATACACATATACACACACACCGATATACATA [CACACA_site8278]", "gcPBM binding intensity (ln)": "10.2 ± 0.18"}
{"sequence": "TATACAATCTATATAACACACATATTTATATAAAAT [CACACA_site1797]", "gcPBM binding intensity (ln)": "9.84 ± 0.057"}
{"sequence": "ATTAATTAAGGCACATGTACAAAATATTTTTTATAA [XGTACX_site1964]", "gcPBM binding intensity (ln)": "10.8 ± 0.45"}
{"sequence": "ATATAATATATGTATACACACATATTATATAATATT [CACACA_site3699]", "gcPBM binding intensity (ln)": "9.995 ± 0.035"}
{"sequence": "ATGAACAGTTCATGTTGTACAATCTCCATTTTTTAC [XGTACX_site3933]", "gcPBM binding intensity (ln)": "11.2 ± 0.6"}
{"sequence": "ACAAAACGAACATACGCATGTGTGTACATTAATATA [TGCATGCA_site922]", "gcPBM binding intensity (ln)": "11.3 ± 0.77"}
{"sequence": "TTATTTACATCAAGTACATGCAGTAAAAAAAAAAAA [TGCATGCA_site351]", "gcPBM binding intensity (ln)": "11 ± 0.82"}
{"sequence": "CACCAATTCCTATGCACACACATCTGCATATTATAT [CACACA_site5049]", "gcPBM binding intensity (ln)": "10.21 ± 0.099"}
{"sequence": "TGTCGGCTTAGATTAGTGCACTGAAAAATGAAGTAT [GTGCAC_site9919]", "gcPBM binding intensity (ln)": "10.3 ± 0.23"}
{"sequence": "TATTTATATAAAAATACACACATGAATGGATATATA [CACACA_site6335]", "gcPBM binding intensity (ln)": "10.03 ± 0.042"}
{"sequence": "CAATATAAAAAACACACACACAAACATATATTTATA [CACACA_site3703]", "gcPBM binding intensity (ln)": 9.96}
{"sequence": "TATTTTTTTTTTGGGTGTACCTTTTATATATATTGT [XGTACX_site5036]", "gcPBM binding intensity (ln)": "11.3 ± 0.84"}
{"sequence": "ATAATATGAAATATAACACACATATATAAAAACATT [CACACA_site866]", "gcPBM binding intensity (ln)": "9.96 ± 0.12"}
{"sequence": "TATACACATTTTTATACACACTTGTTTTATAAAACG [CACACA_site6480]", "gcPBM binding intensity (ln)": "10.2 ± 0.11"}
{"sequence": "GACGTTATGATACACATACACACAGGGATAAAAAAT [CACACA_site2882]", "gcPBM binding intensity (ln)": "10.5 ± 0.47"}
{"sequence": "AATATTATATTTTATTGTACTAATAAAAATATATGC [XGTACX_site5435]", "gcPBM binding intensity (ln)": "11.2 ± 0.79"}
{"sequence": "ATTTAACTAAAGAAGGCACACGTGTTTAAAAAAAAA [CACACA_site5241]", "gcPBM binding intensity (ln)": "10.1 ± 0.11"}
{"sequence": "CATTTATATATATACACACACACAAAAAAAAAAAAA [CACACA_site2645]", "gcPBM binding intensity (ln)": "10.1 ± 0.49"}
{"sequence": "TATATATATATATATGCATGTACATATATTTGTTAT [TGCATGCA_site379]", "gcPBM binding intensity (ln)": "11.1 ± 0.42"}
{"sequence": "TTTTTTTTTTTTTTTTGTACTTAAAAATTTATATAA [XGTACX_site7718]", "gcPBM binding intensity (ln)": "11.2 ± 1"}
{"sequence": "AATGGAATATATATTTGTACATAAATATTATAATAA [XGTACX_site8524]", "gcPBM binding intensity (ln)": "10.9 ± 0.49"}
{"sequence": "TATAAATAAAAATATACACACTGTATTATTGTAATA [CACACA_site7721]", "gcPBM binding intensity (ln)": "9.79 ± 0.057"}
{"sequence": "ACATAGCAATGTTTCACACACAAGAAAAAATACAAT [CACACA_site2379]", "gcPBM binding intensity (ln)": "10.08 ± 0.057"}
{"sequence": "GAAATGTGGTAATATACACACACGCATATATTTATA [CACACA_site6285]", "gcPBM binding intensity (ln)": "10.3 ± 0.26"}
{"sequence": "TTTGAACTCTTAAGTGGTACAAATTTGTATTTTCTC [XGTACX_site2322]", "gcPBM binding intensity (ln)": "11.1 ± 0.75"}
{"sequence": "TTATTTACAACTTTTTTTTTTTTATTTTATTTTATT [CACACA_negctrl_site341]", "gcPBM binding intensity (ln)": "9.66 ± 0.21"}
{"sequence": "TTTACTCCTACAACATGTACATAAAATAAATTTTTT [XGTACX_site5010]", "gcPBM binding intensity (ln)": "11.4 ± 0.88"}
{"sequence": "ACATGTTAACTAAATGTACACACCTATGTTGATGTA [CACACA_site1821]", "gcPBM binding intensity (ln)": "11.3 ± 0.67"}
{"sequence": "TTGATTTATATTTAATGTACATTTTTACAGAAAATT [XGTACX_site2747]", "gcPBM binding intensity (ln)": "11.1 ± 0.71"}
{"sequence": "CCATAAAAAGGATACACACACACACGCACATATATA [CACACA_site6550]", "gcPBM binding intensity (ln)": "10.5 ± 0.3"}
{"sequence": "GATTAAACACAAAGAAGTACGGACATAAAAAAAAAA [XGTACX_site3686]", "gcPBM binding intensity (ln)": "11.4 ± 0.9"}
{"sequence": "AATATAAGTAGTACAGTGCATATAATAATTAGAAGA [GTGCAC_site9485]", "gcPBM binding intensity (ln)": "11.6 ± 1"}
